According to the supplement of paper PMC12632987:
Whole data set: some 2,300 sequences, median “median log2 fold change of GCK-ALFA target abundance (FLAG IP / Myc IP barcode read proportion)” near 0.095, cut for the lowest 2% near -0.47. The list shows a part of the results.

B1: LC3A_28_1268 (protein)
chain: SAIDKAIAAFKAQAEAALAAGEPALLELEVSGKATEADVDKINATLKAEAARLADIPGTAILISIDSKLKEENRNKLIDTAEEIEAAQPNITVIIAIEDE
B2: LC3A_28_639 (protein)
chain: MTIEEEIKKALEEAKKAAENGESKVITLKIPGTSNQEDIDKVIETLEKIAEILKDLPSTSIIIDVDGNVPQENIDKLADKAEEIEKKYPNVTVIIALEEK
B3: LC3A_55_2007 (protein)
chain: MEVFIFITENAETGEILALEVEVDSDPERLLEALRAAGEELAAELFRLANGRRLDEEEMAEIKARYSPEEVRAAVEALIAVLESLPDVKVSVLIELEEEE
B4: LC3A_3_1530 (protein)
chain: MEERIKETLERLREAGASEETLEAFRKAAELLKEKGYEKALETLIEEADKLLDVPDELLLDFFEEVLELIETSDLSEEELVEEIKELARITLNESEIIEL
B5: LC3A_59_2030 (protein)
chain: AARIEAYVAALRANKDDPEAMARVILDALEEFRDDPAALAALRAALQATLVELGLLSPELAAELLAEAEAIVAALEDREEALAAVLSELRVALAEEEIEE
B6: LC3A_3_1453 (protein)
chain: MEELREELLKILKEQGMSEETIEAALELVDELEKKGYLEAIKTLIEELKKLKNVSSEIMLAMFEELLEIVKTKDLSEEEVIEEIKRLAAAAKAEQEIIEL
B7: LC3A_3_1886 (protein)
chain: MEEEIKETIELLKEKGASEETIEAFKKVIELLKKRGYEEALKELIEEVKELADLPDELLLDFLKDVLETLETEDLDEEELIKKIKEIARLTRNEAEIEEL
B8: LC3A_28_1227 (protein)
chain: AAVEAQIAAARAELAAAAAAGEEATITVTITGSTTVEDVKTLMAALRELVEEYADLPRISIIIDLSGSVSQEVIDTAADGGEEIEEEFPNVTVIIALDEE

What follows are binders tested against MAP1LC3A, Q9H492 (assay: median log2 fold change of GCK-ALFA target abundance (FLAG IP / Myc IP barcode read proportion) (log2 ratio); each designed protein is fused to an ALFA-tag nanobody in HEK293 cells to bring the named protein to FLAG-tagged glucokinase (GCK); Myc marks an untargeted standard; higher = target protein stabilised (more abundant)). Conditions: target protein: 3xFLAG-MCP-GCK-ALFA reporter; HEK293 landing pad (RPLP).
Outline: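 Binders fused to an ALFA nanobody were recombined as a library into HEK293 landing-pad cells, which were induced with 2 μg mL^−1 doxycycline and then transfected to express a FLAG-tagged target and a Myc-tagged standard. After 48 h, circular RNA barcodes recovered by anti-FLAG and anti-Myc immunoprecipitation of lysates were reverse transcribed, amplified and sequenced. Each binder's target abundance is the median log2 ratio of FLAG to Myc barcode read proportions, from barcodes present at ≥10^−7 in both replicates, binders carrying ≥3 barcodes per replicate, a 10^−6 pseudocount and pooled replicates.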

Binder | median log2 fold change
B1 | -0.216
B2 | 0.024
B3 | 0.119
B4 | -0.145
B5 | 0.27
B6 | 0.265
B7 | 0.217
B8 | 0.121
